± gives the standard deviation of the averaged measurements. The list shows a part of the results.
test system: PfAP2-G AP2 domain (GST-tagged); assay: gcPBM binding intensity (ln(normalized median fluorescence intensity)); higher = stronger DNA binding
Procedure, shortened: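 The binding buffer was 1× PBS containing 1% milk, 0.2 mg/ml BSA, 0.5% salmon testes DNA and 0.03% Triton X-100. In it, GST-tagged P. falciparum DNA-binding domains expressed in E. coli were applied for 1 h to an Agilent 4 × 180k array of primer-extended double-stranded 36-bp intergenic genomic probes plus negative controls. Binding intensity, read with Alexa488 anti-GST antibody and a 488 nm scan, is the highest Masliner-normalised natural-log median intensity across replicate spots of either probe orientation.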

Row | Sequence | gcPBM binding intensity (ln)
1 | ATACGAAAAAATAGACGTACTATGAAATAATAATTT [XGTACX_site8387] | 11.4 ± 0.84
2 | TACTTAAAAAAAAAAAAAATAAATATTATGTATTAT [CACACA_negctrl_site138] | 9.52 ± 0.028
3 | TACATATTTACTATCACACACACGATATATATAAAT [CACACA_site1242] | 10.1 ± 0.16
4 | TATATTATTTTTTGTGGTACATGTATTTTTACCTAA [XGTACX_site4348] | 11.4 ± 0.82
5 | TAATATTTTAATTGTGTGCACATTAATATTATAAAA | 10.4 ± 0.36
6 | TTTAGTGAGTTTGTTGTGCACTGAAAAAATTACAAT | 10.6 ± 0.35
7 | TAATAGTTATAAAATACACACCAGGCATGATAAATG [CACACA_site4335] | 10.015 ± 0.007
8 | TATAAAATATAAATTTGTACATATAAAATATTTTAT [XGTACX_site7462] | 10.8 ± 0.53
9 | TTTTTTAAAATATAAAATATGTACAAATATGTTGAA [GTGCAC_negctrl_site379] | 11.3 ± 1.1
10 | AATATTTTAAAAAAATGTACTTTTAACCCTTATTGG [XGTACX_site3490] | 11 ± 0.62
11 | GTATGAAAAAAATATGCATGCTAAATAATAAATGTT [TGCATGCA_site352] | 10.01 ± 0.049
12 | ATATATGGGTAGTATACACACTGTATATTTAGGAAT [CACACA_site7357] | 10.17 ± 0.071
13 | GAACAAACAAAGAAAGAACACACATACACAATATAC [CACACA_site8918] | 10.2 ± 0.18
14 | TAGATTTTTTTACATTGTACATATTTTTTCTTATAG [XGTACX_site293] | 11.2 ± 0.8
15 | TATATATATATACATACATATAAAGTTACATAAACA [CACACA_negctrl_site432] | 10.3 ± 0.67
16 | ATTTCGTAATTTATATCACACACATATATATATAAT [CACACA_site9021] | 10.2 ± 0.29
17 | ATCATTTTTATAAATTGTACAAATATTTTTTATACA [XGTACX_site7551] | 11 ± 0.35
18 | CTTACATAAAATATCACACACATAAAAAAACAATAT [CACACA_site1901] | 10 ± 0.19
19 | TATATATATATATATGTGCACATATATATGATATTA | 10.2 ± 0.33
20 | CATATTATTTATATTTGTACACAGCGATATGAAATA [XGTACX_site7717] | 11 ± 0.59
21 | TTATATAAATATAAGGTGCTGGGGTTTATTACATAT [GTGCAC_site9909] | 10 ± 0.18
22 | CACCAATTCATATGCACACACATCTGCATATTATAG [CACACA_site6925] | 10.3 ± 0.22
23 | ATATCGCACGTTTGAAGTACATAAAAACGATTAATA [XGTACX_site7684] | 11.3 ± 0.84

Row | Sequence | gcPBM binding intensity (ln)
24 | TTATATTTTTTTGAGTGTACTTTTTGTGTAAAATTC [XGTACX_site2155] | 11.5 ± 0.84
25 | ACCCATTTTTGTTGTTCTATATATTCGTGAATCATT [CACACA_negctrl_site614] | 10.12 ± 0.064
26 | AATTTTTTGAATAATTGTACATATTTGGTTAAATAT [XGTACX_site3612] | 10.9 ± 0.56
27 | TTACTAAGAAGGATTTATTTTATAAAAATATTTATT [XGTACX_negctrl_site549] | 9.63 ± 0.028
28 | GAAATCTAATTTATTACACACATTTGAAAAAAATTC [CACACA_site6640] | 9.845 ± 0.092
29 | ATATTTTATACTTGCACACAAAATATATTAGAATGT [CACACA_site1985] | 10.2 ± 0.14
30 | TTATTAAAAATGGTATGTACGCACATAATATATATA [XGTACX_site3230] | 11.5 ± 0.71
31 | AACATCATCTCTCCACAACAACAAAAAAAAAAATAC [CACACA_negctrl_site311] | 10.2 ± 0.33
32 | AATACATACATACATACATGCATATATATATATATA [TGCATGCA_site462] | 10.3 ± 0.35
33 | TTTTTTTTTTTTTTTGCACACTTAAATTTGGTGGGG [CACACA_site2344] | 10.7 ± 0.55
34 | CACGCGCACGAACACACACACACACGCATATAAATA [CACACA_site7103] | 10.6 ± 0.38
35 | ATATTATTTTATTTTTGTACAGATATCTTTAAAAAA [XGTACX_site3734] | 10.9 ± 0.56
36 | TACAGATAAATATACATACATATATATATATATATA [XGTACX_negctrl_site182] | 9.86 ± 0.42
37 | TTTTTATTTAAAAGTAGTACAAGGGTTATTATTAAC [XGTACX_site1555] | 11.6 ± 0.98
38 | ACATGTATACTTTTTACGAAAAAAAAAAAAAAAAAA [CACACA_negctrl_site1638] | 10.1 ± 0.47
39 | TATTTTTATTGGTGAATACACACGTATATATATATT [CACACA_site2401] | 10.3 ± 0.23
40 | TGTTTATGTTTACATGTGCGCATTACAGAAAAAAAA [GTGCAC_site9669] | 10.7 ± 0.53
41 | GCTTATAAGATATGCACACACAACACTTACAAAAAA [CACACA_site817] | 10.3 ± 0.38
42 | AAACAAAAAAAATAAGCACACATATATATATATATA [CACACA_site8173] | 10.2 ± 0.64
43 | GAACAAAAAAAAAATTGTACACAATTTTTTAAAATT [XGTACX_site4455] | 11.3 ± 0.65
44 | ATGATTTATTATTATACACACAAAAAAAAAAAAGGA [CACACA_site264] | 10.2 ± 0.37
45 | AATACATACATATATACATGCATACATATAAATATA [TGCATGCA_site674] | 10.1 ± 0.2
46 | TCCTGTGGTTATATAACACACATTATTGCTTATAAG [CACACA_site6823] | 10 ± 0.11

Row | Sequence | gcPBM binding intensity (ln)
47 | TTTTTTAAAAATATTATCATCGTAACAAGAAATCGA [CACACA_negctrl_site1111] | 10 ± 0.24
48 | AAAATTATATGTAATTGTACGGAATTATATACGCAA [XGTACX_site2048] | 10.9 ± 0.43
49 | ATACTAAATGAACACACACACATATAGATTTATAAC [CACACA_site6200] | 10.04 ± 0.057
50 | TATCTGTATATGTGTACACATATTCTTAACTCACGC [CACACA_site4255] | 11.7 ± 1
51 | ATATTGCTTATTTGATGTACGAATACACTAGTATTA [XGTACX_site4536] | 11 ± 0.59
52 | CTGAATTTTTATAACTGTACATATTTGATATAAAAA [XGTACX_site183] | 11.3 ± 0.89
53 | ATATTTAATACAAATACACACACAAATATATACATA [CACACA_site9248] | 10.1 ± 0.13
54 | ATGGGAAAAACATTCCGTACATACATACACATATAT [XGTACX_site8263] | 10.9 ± 0.57
55 | ATTTTATGAAATGTTGCACACAAAAAACAACATGTT [CACACA_site8408] | 10.4 ± 0.23
56 | GAACAACAACAAAAAAAAAAAAAAAAAAAAAAAAAA [CACACA_negctrl_site199] | 9.71 ± 0.49
57 | TAAATAAATATATGTACACACACAAATATATACATA [CACACA_site8577] | 11.4 ± 0.73
58 | TATATGATATAATATACACACATACATATATATATA [CACACA_site8066] | 9.9 ± 0.17
59 | CGCATAAAGACAAGAACACACATATATATTGTAGTA [CACACA_site5938] | 9.92 ± 0.24
60 | CAACAACAAAAAAAAAAATAATAATAATAAAAAATA [TGCATGCA_negctrl_site271] | 9.57 ± 0.16
61 | GTAATTTTATATGGTTGTACATATATATATATATAT [XGTACX_site6659] | 11.3 ± 0.91
62 | TTATACCTGATTTAGGTGCTATAAATTTGTGTTTTT | 10.1 ± 0.16
63 | ATATATATATATATGTGTACTTATATATTTAAAAAA [XGTACX_site1761] | 11.4 ± 0.86
64 | ATATATATATATATATATATTTATATGTGAAAACCC [CACACA_negctrl_site845] | 10 ± 0.32
65 | TATTTTTTAAAAAAATGTCATAAAATTTCTTTTTTC [XGTACX_negctrl_site271] | 9.9
66 | AGAAAAAAATAATGTACACACACATATATGTTTATA [CACACA_site7946] | 11.3 ± 0.82
67 | ATATACAAAGGATTAACACACATATTATTATATATA [CACACA_site1880] | 9.8
68 | TATATTAAGAAACACACACACATATATATATATATA [CACACA_site1609] | 10.2 ± 0.47
69 | TAAATGTCTGTTAATGCACACGATATGTCTATATAT [CACACA_site2352] | 9.925 ± 0.021

Row | Sequence | gcPBM binding intensity (ln)
70 | CTTTCTATATAAAATCGTACATATATAATATTATAT [XGTACX_site5807] | 11.3 ± 0.83
71 | TCCGCATGTACATGGGTGCACATAACACCCATTTAA [GTGCAC_site9881] | 11.2 ± 0.71
72 | TTCCTATTTCCTATGTGTACTTATAAATAAGTGTCT [XGTACX_site3725] | 11.6 ± 0.81
73 | GAAATTATAAATTGGACACACACATAAAAAATATGT [CACACA_site7957] | 10.8 ± 0.5
74 | TAATTTTTTAAATTTAAACACACATTTTGTATATGT [CACACA_site8479] | 9.96 ± 0.057
75 | TATATATATATATATTGTACGAACCTTTTTTTTTTT [XGTACX_site4169] | 11 ± 0.61
76 | TGATACGTATTTATTTCACACACGTTAAAAAAATAA [CACACA_site3914] | 10.8 ± 0.78
77 | TTATTTCTGAATATTTTTTTTTTTTCTTCTTTTTTA [CACACA_negctrl_site815] | 9.31 ± 0.2
78 | CATGTGTTCTATATTTATGTCTAACTTTTTAATTAA [CACACA_negctrl_site904] | 10.1 ± 0.16
79 | CTAACACTAATTTTTTGTACACAATATGTAAATAAA [XGTACX_site6424] | 11.2 ± 0.75
80 | ATTTTTACATAGGAAGCATGCATATTTTAAAAATAA [TGCATGCA_site1046] | 9.99 ± 0.32
81 | ATATATAATCATCACACATGCAGCCCTGATGAAAAA [TGCATGCA_site687] | 9.97 ± 0.14
82 | GGGTATACCAATATAACACACATATATCTATAATAT [CACACA_site6348] | 10 ± 0.13
83 | TAATGTAATACATATTGTACACATACATATATATTT [XGTACX_site7531] | 11.2 ± 0.71
84 | ATATATATATATATATGTACATATTTATATTGTAAA [XGTACX_site8878] | 11.1 ± 0.62
85 | TATAAATTTTTATTTACATGCAGTTATTATTTCCAT [TGCATGCA_site41] | 10 ± 0.18
86 | TATTAAAAGGTTAAAGCATGCATACATATATATGTT [TGCATGCA_site865] | 9.64 ± 0.16
87 | TTTTTGTTACCTATTGTGCACTTCATATAAATTAAA | 10.8 ± 0.54
88 | AATAATAAATAAAAATGTACACATACATTTCTATCC [XGTACX_site7057] | 11.3 ± 0.94
89 | GTAATACCCAAACACACACACATACCCATATATATA [CACACA_site5510] | 10.3 ± 0.26

From the supplement of paper PMC11417369
